Results reported in the supplement of paper PMC4604168 (melanoma cell lines).
The list shows a part of the results. Single values are uncertain, as repeats are few or missing.

How the values were obtained:
Assay in all cases: cell count relative to DMSO control; melanoma cells; higher = more viable cells
Settings in all cases: library dose: low library concentration; 72 h
WM115 = tested on: WM115
WM1716 = tested on: WM1716
WM1745 = tested on: WM1745
WM3526 = tested on: WM3526
WM3619 = tested on: WM3619
WM451Lu = tested on: WM451Lu
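Note: cell number obtained by counting DAPI-stained nuclei in high-throughput microscope images with image analysis software, screen run in 1,536-well plates.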

Row | Compound | cell count (WM115) [%] | cell count (WM1716) [%] | cell count (WM1745) [%] | cell count (WM3526) [%] | cell count (WM3619) [%] | cell count (WM451Lu) [%]
1 | CC(C)C[C@H](NC(=O)[C@H](Cc1ccccc1)NC(=O)c1cnccn1)B(O)O [Bortezomib] + Nc1cccc2c1CN(C1CCC(=O)NC1=O)C2=O [lenalidomide] (first compound 0.001 µM, partner dose 1 µM) | 93.1 | 38.8 | 53.3 | 109 | 13.1 | 109
2 | CC(C)C[C@H](NC(=O)[C@H](Cc1ccccc1)NC(=O)c1cnccn1)B(O)O [Bortezomib] + Cn1nnc2c(C(N)=O)ncn2c1=O [temozolomide] (first compound 0.001 µM, partner dose 2 µM) | 108 | 22.2 | 16.7 | 81.2 | 9.07 | 75.5
3 | CC(C)C[C@H](NC(=O)[C@H](Cc1ccccc1)NC(=O)c1cnccn1)B(O)O [Bortezomib] + C=CCNC1=C2C[C@@H](C)C[C@H](OC)[C@H](O)[C@@H](C)/C=C(\C)[C@H](OC(N)=O)[C@@H](OC)/C=C\C=C(/C)C(=O)NC(=CC1=O)C2=O [Tanespimycin] (first compound 0.001 µM, partner dose 0.002 µM) | 85.5 | 27.7 | 55.2 | 72.9 | 18.9 | 81.4
4 | CC(C)C[C@H](NC(=O)[C@H](Cc1ccccc1)NC(=O)c1cnccn1)B(O)O [Bortezomib] + Clc1ccc(Nc2nnc(Cc3ccncc3)c3ccccc23)cc1 [vatalanib] (first compound 0.001 µM, partner dose 2 µM) | 103 | 22.3 | 51.2 | 96.4 | 10.6 | 91.9
5 | Cc1cn(-c2cc(NC(=O)c3ccc(C)c(Nc4nccc(-c5cccnc5)n4)c3)cc(C(F)(F)F)c2)cn1 [nilotinib] + C[C@@H](Oc1cc(-c2cnn(C3CCNCC3)c2)cnc1N)c1c(Cl)ccc(F)c1Cl [Crizotinib] (first compound 0.2 µM, partner dose 0.2 µM) | 104 | 108 | 110 | 129 | 85 | 113
6 | Cn1c(=O)n(-c2ccc(C(C)(C)C#N)cc2)c2c3cc(-c4cnc5ccccc5c4)ccc3ncc21 + CN(C)S(=O)(=O)c1ccc2c(c1)/C(=C/c1cc3c([nH]1)CCCC3)C(=O)N2 [SU6656] (first compound 0.004 µM, partner dose 0.4 µM) | 77.4 | 116 | 87.2 | 95 | 141 | 96.4
7 | CC(C)C[C@H](NC(=O)[C@H](Cc1ccccc1)NC(=O)c1cnccn1)B(O)O [Bortezomib] + CC(C)CCN1c2nc(Nc3cc(F)c(O)c(F)c3)ncc2N(C)C(=O)C1C [BID1870] (first compound 0.001 µM, partner dose 0.2 µM) | 92.2 | 24.9 | 64.8 | 79.6 | 11.9 | 84.3
8 | Cc1cn(-c2cc(NC(=O)c3ccc(C)c(Nc4nccc(-c5cccnc5)n4)c3)cc(C(F)(F)F)c2)cn1 [nilotinib] + CC(C)C[C@H](NC(=O)[C@H](Cc1ccccc1)NC(=O)c1cnccn1)B(O)O [Bortezomib] (first compound 0.2 µM, partner dose 0.001 µM) | 110 | 84.9 | 86.6 | 95.3 | 80.4 | 61.5
9 | Cn1c(=O)n(-c2ccc(C(C)(C)C#N)cc2)c2c3cc(-c4cnc5ccccc5c4)ccc3ncc21 + COc1ccc2c(c1)CCC1C2CCC2(C)C(NCCCCCCN3C(=O)C=CC3=O)CCC12 [U73122] (first compound 0.004 µM, partner dose 0.4 µM) | 79.3 | 78.1 | 83.4 | 86.9 | 106 | 106
10 | COc1ccc(C2=N[C@@H](c3ccc(Cl)cc3)[C@@H](c3ccc(Cl)cc3)N2C(=O)N2CCNC(=O)C2)c(OC(C)C)c1 [Nutlin-3] + O=c1cc(-c2cccc3c2Sc2ccccc2S3)oc(N2CCOCC2)c1 [KU55933] (first compound 0.1 µM, partner dose 1 µM) | 86.4 | 93.8 | 83.8 | 89.3 | 83.4 | 111
11 | COc1ccc(C2=N[C@@H](c3ccc(Cl)cc3)[C@@H](c3ccc(Cl)cc3)N2C(=O)N2CCNC(=O)C2)c(OC(C)C)c1 [Nutlin-3] + COc1ccc(Cl)c(Nc2nc3ccccc3nc2NS(=O)(=O)c2cccc(NC(=O)C(C)(C)N)c2)c1 [XL147] (first compound 0.1 µM, partner dose 0.8 µM) | 95.3 | 94.3 | 107 | 119 | 88.6 | 110
12 | COc1ccc(C2=N[C@@H](c3ccc(Cl)cc3)[C@@H](c3ccc(Cl)cc3)N2C(=O)N2CCNC(=O)C2)c(OC(C)C)c1 [Nutlin-3] + COc1cc2c(Oc3ccc4[nH]c(C)cc4c3F)ncnc2cc1OCCCN1CCCC1 [cediranib] (first compound 0.1 µM, partner dose 0.4 µM) | 84.9 | 97.6 | 90.9 | 92.8 | 97.6 | 129
13 | Cn1c(=O)n(-c2ccc(C(C)(C)C#N)cc2)c2c3cc(-c4cnc5ccccc5c4)ccc3ncc21 + N#Cc1c(O)c2c(-c3ccc(-c4ccccc4O)cc3)csc2[nH]c1=O [A769662] (first compound 0.004 µM, partner dose 2 µM) | 99.8 | 99.7 | 109 | 53.5 | 79.1 | 53.5
14 | Cc1cn(-c2cc(NC(=O)c3ccc(C)c(Nc4nccc(-c5cccnc5)n4)c3)cc(C(F)(F)F)c2)cn1 [nilotinib] + CC(C)CCN1c2nc(Nc3cc(F)c(O)c(F)c3)ncc2N(C)C(=O)C1C [BID1870] (first compound 0.2 µM, partner dose 0.2 µM) | 103 | 105 | 84.9 | 103 | 113 | 107
15 | COc1ccc(C2=N[C@@H](c3ccc(Cl)cc3)[C@@H](c3ccc(Cl)cc3)N2C(=O)N2CCNC(=O)C2)c(OC(C)C)c1 [Nutlin-3] + O=C(O)C(=O)Nc1sc2c(c1C(=O)O)CCNC2 [TCS401] (first compound 0.1 µM, partner dose 1.66667 µM) | 92.6 | 96.8 | 88.9 | 90.4 | 85.4 | 67.8
16 | Cn1c(=O)n(-c2ccc(C(C)(C)C#N)cc2)c2c3cc(-c4cnc5ccccc5c4)ccc3ncc21 + COC(=O)c1sccc1S(=O)(=O)Nc1ccc(Nc2ccccc2)cc1OC [GSK0660] (first compound 0.004 µM, partner dose 1 µM) | 85.7 | 85.1 | 94.6 | 83.8 | 82.3 | 113
17 | Cc1cn(-c2cc(NC(=O)c3ccc(C)c(Nc4nccc(-c5cccnc5)n4)c3)cc(C(F)(F)F)c2)cn1 [nilotinib] + Cc1cc([N+](=O)[O-])ccc1NS(=O)(=O)c1cc(Cl)ccc1Cl [FH535] (first compound 0.2 µM, partner dose 1 µM) | 89.3 | 100 | 99 | 111 | 104 | 102
18 | COc1ccc(C2=N[C@@H](c3ccc(Cl)cc3)[C@@H](c3ccc(Cl)cc3)N2C(=O)N2CCNC(=O)C2)c(OC(C)C)c1 [Nutlin-3] + COc1cc(N2CCC(N3CCN(C)CC3)CC2)ccc1Nc1ncc(Cl)c(Nc2ccccc2S(=O)(=O)C(C)C)n1 [NVP-TAE684] (first compound 0.1 µM, partner dose 0.08 µM) | 102 | 91.2 | 81.2 | 83.1 | 103 | 90.4
19 | Cc1cn(-c2cc(NC(=O)c3ccc(C)c(Nc4nccc(-c5cccnc5)n4)c3)cc(C(F)(F)F)c2)cn1 [nilotinib] + COc1cc2c(Oc3ccc4[nH]c(C)cc4c3F)ncnc2cc1OCCCN1CCCC1 [cediranib] (first compound 0.2 µM, partner dose 0.4 µM) | 116 | 97.7 | 84 | 116 | 76 | 94.4
20 | COc1ccc(C2=N[C@@H](c3ccc(Cl)cc3)[C@@H](c3ccc(Cl)cc3)N2C(=O)N2CCNC(=O)C2)c(OC(C)C)c1 [Nutlin-3] + Oc1cc(-c2nc(-c3ccccc3)[nH]c2-c2ccncc2)ccc1Cl [L779450] (first compound 0.1 µM, partner dose 0.2 µM) | 70.7 | 106 | 70 | 63.9 | 91.6 | 96.6
21 | Cc1cn(-c2cc(NC(=O)c3ccc(C)c(Nc4nccc(-c5cccnc5)n4)c3)cc(C(F)(F)F)c2)cn1 [nilotinib] + CN(c1ncccc1CNc1nc(Nc2ccc3c(c2)CC(=O)N3)ncc1C(F)(F)F)S(C)(=O)=O [PF562271] (first compound 0.2 µM, partner dose 0.08 µM) | 94.5 | 87.7 | 63.9 | 101 | 126 | 92.1
22 | Cc1cn(-c2cc(NC(=O)c3ccc(C)c(Nc4nccc(-c5cccnc5)n4)c3)cc(C(F)(F)F)c2)cn1 [nilotinib] + Cc1nc(Nc2ncc(C(=O)Nc3c(C)cccc3Cl)s2)cc(N2CCN(CCO)CC2)n1 [dasatanib] (first compound 0.2 µM, partner dose 0.004 µM) | 85.1 | 98.6 | 75.8 | 97 | 99.9 | 96.4
23 | Cn1c(=O)n(-c2ccc(C(C)(C)C#N)cc2)c2c3cc(-c4cnc5ccccc5c4)ccc3ncc21 + NC(=O)Nc1cc(-c2cccc(F)c2)sc1C(=O)N[C@H]1CCCNC1 [AZD7762] (first compound 0.004 µM, partner dose 0.02 µM) | 68.8 | 79.1 | 86 | 59 | 41.3 | 75.9
24 | COc1ccc(C2=N[C@@H](c3ccc(Cl)cc3)[C@@H](c3ccc(Cl)cc3)N2C(=O)N2CCNC(=O)C2)c(OC(C)C)c1 [Nutlin-3] + NCC(=O)Nc1ccc(-n2nc(C(F)(F)F)cc2-c2ccc3c(ccc4ccccc43)c2)cc1 [OSU03012] (first compound 0.1 µM, partner dose 1 µM) | 76.9 | 85.1 | 93.5 | 52 | 110 | 61.8
